# Results reported in PubChem BioAssay AID360 (National Center for Advancing Translational Sciences (NCATS), 2006).
# Hit rate of the full screen: of about 48,000 compounds, about 550 (1.1%) were called active. Inconclusive results (about 4%) are left out. Cut-off read from the data, not from the text of the source: active = potency below about 15 µM; inconclusive = mostly about 16 µM to 33 µM; inactive = weaker than that. The list shows a part of the results.
# Target: Lysosomal acid glucosylceramidase (Homo sapiens) (UniProt P04062)
# Chain of UniProt P04062 (P04062 whole entry, looked up): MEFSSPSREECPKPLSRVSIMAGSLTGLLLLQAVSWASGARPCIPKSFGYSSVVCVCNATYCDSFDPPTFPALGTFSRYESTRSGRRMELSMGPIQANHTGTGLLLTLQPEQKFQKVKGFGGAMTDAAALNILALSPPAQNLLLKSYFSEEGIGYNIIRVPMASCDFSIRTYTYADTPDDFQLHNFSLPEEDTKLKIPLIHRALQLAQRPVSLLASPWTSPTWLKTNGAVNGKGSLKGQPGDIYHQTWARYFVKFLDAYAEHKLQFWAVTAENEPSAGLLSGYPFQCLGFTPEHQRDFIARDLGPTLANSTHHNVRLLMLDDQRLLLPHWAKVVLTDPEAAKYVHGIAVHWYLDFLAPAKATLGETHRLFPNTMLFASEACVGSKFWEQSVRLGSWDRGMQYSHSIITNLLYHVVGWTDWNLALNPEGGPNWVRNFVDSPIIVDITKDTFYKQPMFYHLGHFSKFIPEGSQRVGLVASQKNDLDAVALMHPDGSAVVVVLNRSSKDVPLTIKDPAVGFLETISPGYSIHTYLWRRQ
# Experiment: Glucocerebrosidase;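 note: the screen sought inhibitors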
# Conditions: purified enzyme, resorufin glucoside fluorescence (screen aimed at inhibitors), 20 min; series mostly up to 77 µM
# How it was run: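 Wild-type enzyme at 0.2 nM final in 50mM citric acid/KH2PO4, 10mM sodium taurocholate, 0.01% tween-20, pH 5.9, with resorufin beta-D-glucopyranoside at 30 uM final. Compounds titrated, 20 min at RT, red fluorescence read; AC50 from titration.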
# Potency is the fitted concentration of half-maximal effect.
row,SMILES,Potency
1,Cc1cccn2c(=O)c3cc(C(=O)NC(C)C)c(=N)n(Cc4ccncc4)c3nc12,inactive: > 76.9 µM
2,CCC(c1nnnn1Cc1ccc2c(c1)OCO2)N1CCN(c2ccc(F)cc2)CC1 (stereo not given),inactive: > 76.9 µM
3,Cc1ccc2c(c1)N(CCC(=O)NCCCOC(C)C)C(=O)C(C)O2 (stereo not given),inactive: > 76.9 µM
4,Cc1ccc2c(C)nc(NC3=NCN(Cc4ccccc4)CN3)nc2c1,inactive: > 76.9 µM
5,COc1ccccc1-n1nnnc1SCc1ccccc1,inactive: > 76.9 µM
6,COCCn1c(SCc2ccccc2Cl)nc2c1c(=O)[nH]c(=O)n2C,inactive: > 76.9 µM
7,COc1cc2[nH]c(=S)n(CC3CCCO3)c(=O)c2cc1OC (stereo not given),inactive: > 76.9 µM
8,O=C(NCC1CCCO1)c1csc2c1CCCC2 (stereo not given),inactive: > 76.9 µM
9,O=C(NCSc1ccncn1)c1ccccc1,inactive: > 76.9 µM
10,CCSCc1nnc(SCC(=O)c2ccc(OC)cc2)n1C,inactive: > 76.9 µM
11,C=CCNc1nc(NCCN2CCOCC2)nc(OC)n1,inactive: > 76.9 µM
12,N#Cc1ccccc1Sc1ccccc1C(=O)OCc1nnc(-c2ccccc2)o1,inactive: > 76.9 µM
13,CCOC(=O)c1c(C)[nH]c(C(=O)Cn2c(=O)oc3ccccc32)c1C,inactive: > 76.9 µM
14,Cc1cccc(C(=O)O)c1NC(=O)c1ccc(F)cc1,inactive: > 76.9 µM
15,Cc1cc(C)c(NC(=O)CSc2nnc(-c3ccncc3)n2Cc2ccco2)c(Cl)c1,inactive: > 76.9 µM
16,Nc1c(C2=NCCO2)nnn1Cc1ccccc1,inactive: > 76.9 µM
17,Cc1cc(NC(=O)CCC(=O)N(CC(=O)NC2CCCC2)Cc2ccccc2Cl)no1,inactive: > 76.9 µM
18,CCOC(=O)c1ccc(CNC(=O)Cn2nnc(-c3ccc(C)cc3)n2)o1,inactive: > 76.9 µM
19,O=C(NCC(c1cccs1)N1CCOCC1)c1cc2ccccc2o1 (stereo not given),inactive: > 76.9 µM
20,COC(=O)CNc1nc(OC)nc(N(C)C)n1,inactive: > 76.9 µM
21,CCC(=O)N1CCN(C(=O)CC)C1c1ccccc1,inactive: > 76.9 µM
22,O=C(Cn1ncn2c(cc3ccccc32)c1=O)NCCC1=CCCCC1,inactive: > 76.9 µM
23,O=C(OCC(=O)N1CCCC1)c1ccccc1OCc1ccccc1,inactive: > 76.9 µM

row,SMILES,Potency
1,Cc1ccoc1C(=O)NCCCNC(=O)c1occc1C,inactive: > 76.9 µM
2,Fc1ccccc1Cn1nnc2c(NCCc3ccccn3)ncnc21,inactive: > 76.9 µM
3,CCOC(=O)C1=C(C)N(C)C(C)=C(C(=O)OCC)C1c1ccncc1,inactive: > 76.9 µM
4,CCOC(=O)c1sc(N(Cc2ccccc2)C(=O)CSc2nnc(C3CC3)n2N)nc1C,inactive: > 76.9 µM
5,C=CCc1ccccc1OCC(O)CN(C(C)C)C(C)C (stereo not given),inactive: > 76.9 µM
6,N=c1n(CCN2CCCCC2)c2ccccc2n1CC(O)COc1ccccc1 (stereo not given),inactive: > 76.9 µM
7,Cc1cc(C(=O)CSc2nc3ccccc3[nH]2)c(C)n1C,inactive: > 76.9 µM
8,CSc1nc(N)nc(SCC(=O)c2ccc(C)cc2)c1C#N,inactive: > 76.9 µM
9,O=C(COc1cc(Cl)c(Cl)cc1Cl)NCCN1CCOCC1,inactive: > 76.9 µM
10,O=C(NCC1CCCO1)c1ccc(S(=O)(=O)N2CCCCC2)cc1 (stereo not given),inactive: > 76.9 µM
11,COCCNc1cc(C)nc2c3c(C)cc(C)nc3nn12,inactive: > 76.9 µM
12,CCCNc1nc2c(c(=O)[nH]c(=O)n2C)n1CCCc1ccccc1,inactive: > 76.9 µM
13,Cc1ccc(S(=O)(=O)N2CCCC(C(=O)NCC3COCCO3)C2)cc1 (stereo not given),inactive: > 76.9 µM
14,COC(=O)Cn1c(CN2CCC(Cc3ccccc3)CC2)nc2c1c(=O)n(C)c(=O)n2C,inactive: > 76.9 µM
15,Cc1ccc(Cn2nnc3c(=O)[nH]c(C4CCN(S(=O)(=O)c5ccc(F)cc5)CC4)nc32)cc1,active: 5.49 µM
16,CS(=O)(=O)N1CCCC(C(=O)NCc2ccccn2)C1 (stereo not given),inactive: > 76.9 µM
17,CCCn1c(N2CCN(CC(=O)c3c[nH]c4ccccc34)CC2)nc2c1c(=O)[nH]c(=O)n2C,inactive: > 76.9 µM
18,CCC(=O)NCC(c1cccs1)N1CCOCC1 (stereo not given),inactive: > 76.9 µM
19,Cc1ccccc1Nc1nc(N)nc(CN2C(=O)NC3(CCCCC3C)C2=O)n1 (stereo not given),inactive: > 76.9 µM
20,COC(=O)CSc1nc2ncc(Cl)cc2[nH]1,inactive: > 76.9 µM
21,Cc1cc(C)nc(SCC(=O)c2cc3ccccc3oc2=O)n1,inactive: > 76.9 µM
22,Cn1nnnc1SCC(=O)N1c2ccccc2Sc2ccc(Cl)cc21,inactive: > 76.9 µM
23,N#Cc1nc(COc2ccc(F)cc2)oc1N1CCN(Cc2ccccc2)CC1,inactive: > 76.9 µM

row,SMILES,Potency
1,CCC(C)(C)n1nnnc1C(c1cc2ccc(OC)cc2[nH]c1=O)N1CCN(C2CCCCC2)CC1 (stereo not given),inactive: > 76.9 µM
2,CCC1Oc2ccc(C)cc2N(CC(=O)NCCN2CCCCCC2)C1=O (stereo not given),inactive: > 76.9 µM
3,Cc1c(Cl)cccc1-n1ccnc1SCC(=O)O,inactive: > 76.9 µM
4,O=C(c1ccco1)N1CCN(S(=O)(=O)c2ccc3c(c2)CCN3C(=O)C2CCC2)CC1,inactive: > 76.9 µM
5,Cc1ccc(Cn2nnc(C(=O)Nc3cccc(C)c3C)c2N)cc1,inactive: > 76.9 µM
6,O=c1ccsn1Cc1ccccc1,inactive: > 76.9 µM
7,CCC(=O)NC1(C(F)(F)F)C(=O)Nc2c1c(=O)n(C)c(=O)n2C (stereo not given),inactive: > 76.9 µM
8,CC1C=Cc2ccccc2N1C(=O)c1ccccc1 (stereo not given),inactive: > 76.9 µM
9,CC1Cc2ccccc2N1C(=O)CCS(=O)(=O)c1cccc2nonc12 (stereo not given),inactive: > 76.9 µM
10,CN(C(=O)c1cnccn1)c1nnc(-c2cnccn2)s1,inactive: > 76.9 µM
11,CCn1ncc(Br)c1C(=O)Nc1ccc(Cl)cn1,inactive: > 76.9 µM
12,Cc1ccc(OCn2c(=O)sc3ccccc32)cc1,inactive: > 76.9 µM
13,O=c1c2ccccc2nnn1CSc1nc2sc3c(c2c(=O)n1CC1CCCO1)CCC3 (stereo not given),inactive: > 76.9 µM
14,Cc1cc(-c2ccc(Cl)cc2)n2nc(N)nc2n1,inactive: > 76.9 µM
15,O=C1CCc2cc(S(=O)(=O)N3CCN(c4cccc(C(F)(F)F)c4)CC3)ccc2N1,inactive: > 76.9 µM
16,CCN(CCNC(=O)C1CCN(S(C)(=O)=O)CC1)c1ccccc1,inactive: > 76.9 µM
17,O=C(Nc1ccc(Cl)c(Cl)c1)Nc1cc(C(=O)N2CCOCC2)ccc1N1CCCCC1,inactive: > 76.9 µM
18,COc1ccc(C2=NOC(C(=O)NC3CCCCC3)C2)cc1OC (stereo not given),inactive: > 76.9 µM
19,CCOC(=O)c1ccc(-c2nnc(-c3ccc(Cl)cc3Cl)o2)cc1,inactive: > 76.9 µM
20,CS(=O)(=O)N(CC(=O)Nc1cccc(F)c1)Cc1ccccc1,inactive: > 76.9 µM
21,COc1ccc(-n2nc(C(=O)NCC(=O)NCC3CCCO3)c3ccccc3c2=O)c(OC)c1 (stereo not given),inactive: > 76.9 µM
22,CCn1c(CNc2ccc(OC)cc2)nnc1SCC(=O)c1ccc(OC)cc1,inactive: > 76.9 µM
23,CCOc1ccc(-c2cc(C(=O)NCCCN3CCN(CC)CC3)c3ccccc3n2)cc1,inactive: > 76.9 µM

row,SMILES,Potency
1,CCOc1ccccc1NC(=O)NC1CCN(CC(=O)Nc2ccc3c(c2)OCCO3)CC1,inactive: > 76.9 µM
2,CCOC(=O)c1ccc(COc2nc3ccccc3nc2-c2ccccc2NC(C)=O)o1,inactive: > 76.9 µM
3,CCCOc1ccccc1NC(=O)CC1Nc2ccccc2NC1=O (stereo not given),active: 13.9 µM
4,COc1ccc(-c2nc(CS(=O)(=O)CC(=O)NCCc3cc(OC)ccc3OC)c(C)o2)cc1,inactive: > 76.9 µM
5,CCC(=O)N1CCCc2cc(S(=O)(=O)N3CCC(N4CCCCC4)CC3)ccc21,inactive: > 76.9 µM
6,C=CCOc1ccc(Cl)cc1C(=O)O,inactive: > 76.9 µM
7,COc1ccc(-c2nnc3sc(COc4ccc(C)cc4)nn23)cc1,inactive: > 76.9 µM
8,CCCCn1c(Cl)nc2c1c(=O)n(C)c(=O)n2C,inactive: > 76.9 µM
9,Nc1c(C(=O)NC2CCCCC2)nsc1C(=O)OCC(=O)NC1CCCCC1,inactive: > 76.9 µM
10,O=C(Nc1ccccc1N1CCN(c2ccccc2)CC1)C1CCCCC1,inactive: > 76.9 µM
11,CC(C)N(C(=O)CSc1nnc(NC(=O)C2CCC2)s1)C(C)C,inactive: > 76.9 µM
12,CCc1c(C(=O)Nc2cc(C)ccc2OC)[nH]c(C)c1C(C)=O,inactive: > 76.9 µM
13,Cc1cc(C)n(-c2nc3c(c(=O)[nH]c(=O)n3C)n2CC(O)COc2ccccc2)n1 (stereo not given),inactive: > 76.9 µM
14,CNc1nc2c(c(=O)n(C)c(=O)n2C)n1Cc1ccccc1,inactive: > 76.9 µM
15,Cc1ccc2cc(CN(Cc3ccco3)C(=O)c3ccccc3)c(=O)[nH]c2c1C,inactive: > 76.9 µM
16,Cn1c(N2CCC(C(N)=O)CC2)nc2c1c(=O)n(Cc1ccc(Br)cc1)c(=O)n2C,inactive: > 76.9 µM
17,O=C(Cc1cccs1)N1CCCC(c2nc3c(nnn3Cc3ccc(F)cc3)c(=O)[nH]2)C1 (stereo not given),inactive: > 76.9 µM
18,CCNC(=O)CC1C(=O)N(c2ccccc2)C(=O)N1CCc1ccc(OC)cc1 (stereo not given),inactive: > 76.9 µM
19,CCOc1cc(N2CCOCC2)c(OCC)cc1NC(=O)CN1C(=O)NC(Cc2ccccc2)C1=O (stereo not given),inactive: > 76.9 µM
20,Cc1ccccc1C(=O)N1CCCN(C(=O)c2ccccc2C)CC1,inactive: > 76.9 µM
21,Cc1ccc(N2CC(C(=O)N3CCc4ccccc4C3)CC2=O)cc1 (stereo not given),inactive: > 76.9 µM
